# Experimental data taken from the supplement of paper PMC11417369.
# ± gives the standard deviation of the averaged measurements. The list shows a part of the results.
# Test system: PfAP2-EXP AP2 domain (GST-tagged)
# Experiment: gcPBM binding intensity (ln(normalized median fluorescence intensity)); higher = stronger DNA binding
# Summary of the method: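 Binding of GST-tagged P. falciparum DNA-binding domains, expressed in E. coli and used at about 25 μg on average, was carried out for 1 h in 1× PBS containing 1% milk, 0.2 mg/ml BSA, 0.5% salmon testes DNA and 0.03% Triton X-100. The target was an Agilent 4 × 180k array of primer-extended double-stranded 36-bp intergenic genomic probes plus negative controls, read with Alexa488 anti-GST antibody at 488 nm. Binding intensity is the highest Masliner-normalised natural-log median intensity across replicate spots of either probe orientation.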
row,Sequence,gcPBM binding intensity (ln)
1,TGTACATATATATAATATATATATCATCATATTTTC [CACACA_negctrl_site1750],8.47 ± 0.38
2,ATTCACGTGTCTTAAAAAAAAAAAAAAGAAAAAAAG [CACACA_negctrl_site573],8.34 ± 0.39
3,ATATATATATATATATGTACATATATATACATATAT [XGTACX_site6987],10.1 ± 0.43
4,TATATATATATATCCACACACATACAGATATTAAGA [CACACA_site4214],10 ± 0.29
5,AGTATACGAATAAAATGTACATACAAATTGTTGTAA [XGTACX_site36],8.67 ± 0.41
6,TCCTTAAAATATATCACACATTTCGTTCATTTATAA [CACACA_site4346],8.72 ± 0.38
7,AATATGATTATTACCCGTACATATTACCTTATGGTA [XGTACX_site1714],8.52 ± 0.3
8,AATGATATTATCTCTTCACACACTCACATACAGACA [CACACA_site8335],8.64 ± 0.41
9,TTTTAAAAAAATAAAAAATAATAAAAAAAATAAAAA [CACACA_negctrl_site1693],8.39 ± 0.26
10,TCAGGAATATAAAGTGCACACATAATTTGGGGGCAA [CACACA_site7974],9.62 ± 0.19
11,TATATAAGGATATATACACACATATAGGTATTTATA [CACACA_site7092],8.34 ± 0.47
12,GTGCATATGTAGATATGTACATATTTATTTATTATT [XGTACX_site7343],8.38 ± 0.16
13,AAAAATAAATAAAGTGGTACATAAAAAAGAGAAATT [XGTACX_site874],9.04 ± 0.43
14,GCGGCGGTATCATGCACACGTATATATTGTAACAGT [CACACA_site4958],8.8 ± 0.4
15,TCATTGAAAAAAATGTGTACTCATCAAGTATATATT [XGTACX_site6430],8.55 ± 0.3
16,TTTACAGATACATTCACACATAAATTCATGTATAAT [CACACA_site5387],8.4 ± 0.31
17,ATTGTTATGAGAACAGCACACAAGCTACATCATATA [CACACA_site8192],8.42 ± 0.34
18,ATATATAATTTTTGTTGTACATTATAAAAATAATTA [XGTACX_site2738],8.41 ± 0.31
19,ACCGAAGGAATTTATAGTACACATCATAAATAAATT [XGTACX_site4100],8.54 ± 0.24
20,AAAAATTTTTTTTCATTTGTTTTTATTCCGTAAAAA [CACACA_negctrl_site1217],8.48 ± 0.46
21,AATATAAAAAAAAAATGTACATATTATATATATATA [XGTACX_site5113],9.74 ± 0.45
22,AGTTTGATTTTTTCTTATAATATATTATTATATATT [CACACA_negctrl_site376],8.73 ± 0.45

row,Sequence,gcPBM binding intensity (ln)
1,TATAATATAAAATAATGTACTTTGAAATATGACATA [XGTACX_site3579],8.32 ± 0.3
2,TTTTTATTAATAGATATAAATATATAATATGAATGT [TGCATGCA_negctrl_site309],8.23 ± 0.54
3,CCATATAATATGAACAGTACACACAAAATAAATTCG [XGTACX_site7590],8.86 ± 0.32
4,AAATATTATAGCACCACACACTTATTTTATATATAT [CACACA_site5281],8.89 ± 0.14
5,GAAAATTTAATATAGAACGAAAGCATACACATATAT [GTGCAC_negctrl_site424],8.85 ± 0.68
6,ATATATATATATATTTGTACAGATTTATATTATAAT [XGTACX_site7612],9.96 ± 0.23
7,TCTTCAAACAAAAAAAATAATAAAAAGTACAAAATG [CACACA_negctrl_site363],8.88 ± 0.4
8,TTATGTCATAAATGCACACATATATAAATACAGATA [CACACA_site4959],8.53 ± 0.28
9,ATATGTGATTTCTAATGTACACAAAAAAAAAAAAAA [XGTACX_site7701],8.4 ± 0.39
10,TTTTTGTTTTTGTTTTGTACTCATACATACTATCAT [XGTACX_site4210],8.99 ± 0.44
11,GGGGTATCTTCCTATGCACACTTGTTATGTACTAAC [CACACA_site4610],9.53 ± 0.42
12,ATATATACGTATGAATGTATATTTGTTTGATTTTTT [CACACA_negctrl_site835],8.39 ± 0.4
13,CTTTTATTAAAATTCACACACATAAATTTTTATAAA [CACACA_site1993],8.29 ± 0.37
14,ATTTTCATGATAAAGGTGCAATTATTTTTATAAGAA,8.74 ± 0.13
15,TATATATATATATATGGTACAGTTTATGCCTTTTAA [XGTACX_site6695],10.1 ± 0.39
16,TATAATATATACAAATGTACATATATATATATATAT [XGTACX_site4559],10.2 ± 0.42
17,TTATTTATAATATATACACACTAACATTATTTATCC [CACACA_site4835],8.41 ± 0.44
18,AAAAAAACATGAAACACACACAAATATATATATATA [CACACA_site1884],10 ± 0.21
19,TTCGTATATTATTAATGTACATTATAAAATCAATAT [XGTACX_site5751],8.63 ± 0.27
20,AACAATATTATTGTTTGTACTCACATATATAATATA [XGTACX_site8063],8.36 ± 0.36
21,ATATATATGTGAAAATCACACATTGCTTATCTGTAA [CACACA_site6044],8.35 ± 0.42
22,TGTTTTATTATTTATAGTACATAAAAAAATATTGTA [XGTACX_site8963],8.25 ± 0.24

row,Sequence,gcPBM binding intensity (ln)
1,AAGGCATACAATACCTGTACGCAACCTTAAAAAGAA [XGTACX_site6070],8.59 ± 0.36
2,AAAAAAAAAAAAAAAAAAAAAAAAAAAATTCTATAT [GTGCAC_negctrl_site468],9.28
3,CACACGCACAAAAACACACACAAAGGTGTTCTTATA [CACACA_site6724],8.45 ± 0.45
4,AGATATTTCATTTAAAGTACATTCTTTATCACATAA [XGTACX_site6731],8.33 ± 0.38
5,TTATTTTTTTTTTTTCGTACTTATTTATCTTGGTAT [XGTACX_site78],8.55 ± 0.51
6,AAAATCTATAATATAACACACATATATTCTATATGG [CACACA_site7821],8.06 ± 0.4
7,TTCCTGTTAATTACAACACACAATTCTTATTTTATG [CACACA_site6507],8.81 ± 0.42
8,CATACATACAGACACACACACATATAAATACATACA [CACACA_site6533],8.73 ± 0.44
9,ATTTTCAAATTCTATGCATGTGTATATTATAGATAA [TGCATGCA_site1003],8.77 ± 0.45
10,TTAACAAAACTTTTAACACACAAAAAAAAAAAAAAA [CACACA_site6947],8.19 ± 0.44
11,CTATAATAATAAAGTGAACACACACCGATAATATAT [CACACA_site9377],8.72 ± 0.57
12,AATTAAATTACTTATACACACATAAAATGCCTGTAT [CACACA_site6597],8.37 ± 0.31
13,GTAAGTTGTGCATTCACACACATATAAATATAAATA [CACACA_site7536],8.66 ± 0.24
14,CATTATGTTGTAAATGCACACATACAAATACATATA [CACACA_site8380],8.59 ± 0.3
15,TTATGATATATTTGTTGTACGCTTTTTTTATGAACT [XGTACX_site573],8.99 ± 0.43
16,AACACATACATATATACACACACAAAATAATAAAAT [CACACA_site8724],8.72 ± 0.62
17,ATGACCCACTTTTCTGCACACATAAAAAATATATAA [CACACA_site8092],8.83 ± 0.35
18,TTTTTTCTATTGAGCACACATATCACGATTAGTACT [CACACA_site313],8.59 ± 0.3
19,ATATATATTATTTCTACACACATATATATAATATGT [CACACA_site3374],8.66 ± 0.42
20,GCTCAATTTTTGGGTACACACAAATGTATAATAATA [CACACA_site2388],8.58 ± 0.21
21,TTCTTTTTTCAACACACACACACAAGAAAATATATA [CACACA_site9019],8.97 ± 0.47
22,CAAAGAGAAATAAACACACACAAAATAAAGAAAAAA [CACACA_site2245],8.77 ± 0.59

row,Sequence,gcPBM binding intensity (ln)
1,AAAAAAAAAAAAAAAACACACATATAGATTTATATA [CACACA_site7196],8.4 ± 0.17
2,TGAACAGACAAATACACACACTCAAAAAAAAAAAAG [CACACA_site7287],8.47 ± 0.53
3,GCACTCGTAAAAAGCACACATATAAAAACATTTATA [CACACA_site322],8.45 ± 0.35
4,CAATGCTTTATCAATACATGCATATATATAGAAATA [TGCATGCA_site857],8.68 ± 0.25
5,TATAATAATTCTTTGAGTACTTAAACATGTGAAATT [XGTACX_site955],8.51 ± 0.45
6,GCGAGATGCTAAAATGCATGTTGGGCATTAGTTAAA [TGCATGCA_site586],8.7 ± 0.43
7,TATCATTTCTAAAAAGGTACACATACATCATATATT [XGTACX_site3386],8.91 ± 0.28
8,ATATTAATATATGTGGCACACATGTGGAGTCCTATT [CACACA_site213],8.96 ± 0.45
9,AAAAAAATGAAGAAATGTACAAATTTCATTAATTTT [XGTACX_site354],8.29 ± 0.43
10,GTGTAGTAAAATCGATGTACGTACAAATCAATTATT [XGTACX_site7662],8.69 ± 0.29
11,TATATATGTAAATGCACACATATGTGGATATACTTA [CACACA_site1699],8.78 ± 0.099
12,TTATATGTTTTACAACGTACACAAAAAAAACTTATA [XGTACX_site4413],8.34 ± 0.13
13,CATTTTTACCGGTACTGTACATAAAAAAAAAAAAAG [XGTACX_site1548],8.88 ± 0.46
14,TAAAAAAAAAGAAGGGGTACATGGATAATATATAAA [XGTACX_site8386],8.9 ± 0.5
15,TATATAATATTTTTCACACACCATTTCCTTAAACAC [CACACA_site4862],8.66 ± 0.45
16,GCAGGCTAAAAAATTACACACGAAAAAAATGAATTT [CACACA_site3417],8.44 ± 0.45
17,CATATATGGTTATATACATGCACCATTATATTATTA [TGCATGCA_site520],8.71 ± 0.099
18,TGTATAACCTGTGTTACACACATTATGATTTATATA [CACACA_site525],8.48 ± 0.21
19,TGATAAAGTAAATATACATGCGATTAGTTATATATA [TGCATGCA_site720],8.55 ± 0.39
20,TAATTAATAATAATATGTACATATTAATATATTATT [XGTACX_site6900],8.29 ± 0.24
21,TTTTATATATATATCACACACACACCCATGTTTTAA [CACACA_site79],8.71 ± 0.54
22,TTTATTCTCAAACACACACACATATATATATATATA [CACACA_site2895],10.2 ± 0.51
